This note sets out measurements from PMC10317990.

Chains of the proteins cited; added tags and fusions are not shown. Lines headed by an entry give the natural chain unless they say otherwise; changes in a name come on top. A line that says so, or that is headed by a name, gives the form on record, which may keep a tag or linker. Residues count along the entry.
UniProt Q13761: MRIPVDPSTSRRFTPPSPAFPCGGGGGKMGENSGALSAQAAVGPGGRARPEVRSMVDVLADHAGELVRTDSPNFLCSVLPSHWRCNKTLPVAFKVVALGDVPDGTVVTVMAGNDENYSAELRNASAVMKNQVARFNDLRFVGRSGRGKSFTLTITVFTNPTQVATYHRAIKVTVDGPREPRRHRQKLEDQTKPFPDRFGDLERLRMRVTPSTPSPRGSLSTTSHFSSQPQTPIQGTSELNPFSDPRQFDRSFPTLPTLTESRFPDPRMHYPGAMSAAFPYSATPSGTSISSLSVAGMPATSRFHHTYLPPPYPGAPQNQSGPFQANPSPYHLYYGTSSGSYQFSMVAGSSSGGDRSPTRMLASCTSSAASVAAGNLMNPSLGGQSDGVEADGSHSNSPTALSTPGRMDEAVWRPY
FLAG-tagged RUNX3 truncation (aa 1-187): residues 1-187 of Q13761
UniProt P01106: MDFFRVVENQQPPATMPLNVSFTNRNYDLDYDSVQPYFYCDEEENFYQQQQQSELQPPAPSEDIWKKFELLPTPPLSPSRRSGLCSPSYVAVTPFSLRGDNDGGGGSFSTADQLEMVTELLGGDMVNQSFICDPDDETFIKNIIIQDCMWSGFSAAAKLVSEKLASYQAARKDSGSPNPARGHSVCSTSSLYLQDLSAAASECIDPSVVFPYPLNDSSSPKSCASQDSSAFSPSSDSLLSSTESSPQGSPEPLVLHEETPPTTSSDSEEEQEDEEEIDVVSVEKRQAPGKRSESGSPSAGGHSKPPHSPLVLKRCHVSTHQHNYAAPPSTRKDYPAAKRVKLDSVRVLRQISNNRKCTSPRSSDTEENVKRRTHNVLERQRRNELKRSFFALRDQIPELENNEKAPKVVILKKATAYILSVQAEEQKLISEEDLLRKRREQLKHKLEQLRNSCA
HA-tagged MYC: residues 16-454 of P01106
HA-tagged MYC aa 1-171: residues 16-186 of P01106
HA-tagged MYC aa 357-439: residues 372-454 of P01106
UniProt Q01196: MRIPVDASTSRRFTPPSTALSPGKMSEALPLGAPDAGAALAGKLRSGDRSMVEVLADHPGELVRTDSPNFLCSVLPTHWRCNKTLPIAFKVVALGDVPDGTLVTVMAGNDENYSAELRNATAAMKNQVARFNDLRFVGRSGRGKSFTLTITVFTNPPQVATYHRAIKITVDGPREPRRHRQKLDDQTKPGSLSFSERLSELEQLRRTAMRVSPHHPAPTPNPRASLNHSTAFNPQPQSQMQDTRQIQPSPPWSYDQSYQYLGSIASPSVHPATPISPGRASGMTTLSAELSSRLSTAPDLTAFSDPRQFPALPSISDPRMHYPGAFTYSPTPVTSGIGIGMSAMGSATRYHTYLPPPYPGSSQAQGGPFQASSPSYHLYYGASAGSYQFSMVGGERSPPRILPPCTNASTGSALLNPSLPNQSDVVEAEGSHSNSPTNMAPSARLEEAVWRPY
UniProt Q13950: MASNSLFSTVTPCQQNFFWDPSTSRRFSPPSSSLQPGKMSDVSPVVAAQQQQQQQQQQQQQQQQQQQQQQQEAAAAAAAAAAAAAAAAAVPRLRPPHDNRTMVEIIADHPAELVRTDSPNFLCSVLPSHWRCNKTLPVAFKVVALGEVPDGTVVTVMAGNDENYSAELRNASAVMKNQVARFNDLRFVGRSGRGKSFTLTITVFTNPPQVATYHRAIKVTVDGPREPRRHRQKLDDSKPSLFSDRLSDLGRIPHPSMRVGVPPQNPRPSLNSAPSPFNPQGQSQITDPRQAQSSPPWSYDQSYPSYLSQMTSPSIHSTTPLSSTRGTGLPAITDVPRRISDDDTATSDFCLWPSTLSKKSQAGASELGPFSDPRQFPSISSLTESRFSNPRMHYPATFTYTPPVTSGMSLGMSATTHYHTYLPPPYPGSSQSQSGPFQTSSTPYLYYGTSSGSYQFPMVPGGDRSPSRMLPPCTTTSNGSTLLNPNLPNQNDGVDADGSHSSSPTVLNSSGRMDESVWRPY
UniProt P61244: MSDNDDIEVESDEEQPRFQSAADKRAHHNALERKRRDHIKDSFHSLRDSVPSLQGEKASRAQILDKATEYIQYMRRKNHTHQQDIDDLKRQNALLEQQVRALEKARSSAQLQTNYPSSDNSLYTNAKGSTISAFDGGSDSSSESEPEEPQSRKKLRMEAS
UniProt Q969H0: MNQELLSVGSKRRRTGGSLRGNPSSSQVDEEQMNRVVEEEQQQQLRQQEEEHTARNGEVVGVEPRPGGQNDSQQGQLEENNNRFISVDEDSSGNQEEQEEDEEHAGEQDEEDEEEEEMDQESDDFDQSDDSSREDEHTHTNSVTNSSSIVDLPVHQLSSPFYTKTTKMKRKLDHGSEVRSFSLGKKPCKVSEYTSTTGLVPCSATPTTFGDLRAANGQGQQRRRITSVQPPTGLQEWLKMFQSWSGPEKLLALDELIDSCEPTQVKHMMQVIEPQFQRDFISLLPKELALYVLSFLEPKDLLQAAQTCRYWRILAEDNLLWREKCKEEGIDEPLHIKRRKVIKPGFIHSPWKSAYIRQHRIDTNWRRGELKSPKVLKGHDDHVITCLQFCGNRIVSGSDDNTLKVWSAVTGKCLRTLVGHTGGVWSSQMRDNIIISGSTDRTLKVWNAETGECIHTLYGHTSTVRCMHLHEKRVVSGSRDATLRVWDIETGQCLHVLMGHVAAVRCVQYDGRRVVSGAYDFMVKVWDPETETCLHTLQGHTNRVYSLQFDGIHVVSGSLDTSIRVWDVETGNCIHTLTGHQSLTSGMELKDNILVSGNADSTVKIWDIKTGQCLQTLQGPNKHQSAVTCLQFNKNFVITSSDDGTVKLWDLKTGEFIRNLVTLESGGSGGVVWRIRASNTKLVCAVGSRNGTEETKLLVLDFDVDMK
UniProt P49841: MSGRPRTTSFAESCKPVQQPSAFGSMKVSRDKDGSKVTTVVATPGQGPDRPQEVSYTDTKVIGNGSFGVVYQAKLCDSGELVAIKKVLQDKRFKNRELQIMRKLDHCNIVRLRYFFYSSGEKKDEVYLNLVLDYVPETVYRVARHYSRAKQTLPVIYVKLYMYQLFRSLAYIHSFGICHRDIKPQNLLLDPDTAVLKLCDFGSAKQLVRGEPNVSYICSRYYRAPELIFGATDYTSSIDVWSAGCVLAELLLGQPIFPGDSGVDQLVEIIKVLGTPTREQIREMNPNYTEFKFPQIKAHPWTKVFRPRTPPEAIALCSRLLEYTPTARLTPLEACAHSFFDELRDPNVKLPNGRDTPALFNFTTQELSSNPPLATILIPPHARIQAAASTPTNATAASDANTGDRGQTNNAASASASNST
UniProt Q13951: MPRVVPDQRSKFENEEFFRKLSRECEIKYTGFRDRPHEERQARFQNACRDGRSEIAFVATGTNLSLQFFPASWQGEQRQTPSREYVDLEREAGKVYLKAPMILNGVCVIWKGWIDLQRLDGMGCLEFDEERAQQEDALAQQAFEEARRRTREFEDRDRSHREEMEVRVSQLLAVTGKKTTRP

No constants are given. Whether binding was seen depends on the method and setting. Binding seen in cells or lysates may run through a third protein. Some binding calls cover weakened binding; strength is not graded here.

For experiment [1], the target named is FLAG-tagged RUNX3 (human) (UniProt Q13761). The experiment can be described thus: co-IP; HEK293T cells transfected with the indicated plasmids, lysed 24 h later; 400 µg lysate, 90 min with anti-HA affinity gel or Flag M2 affinity gel in 25 mM Tris pH 8.0, 0.15 M NaCl, 0.25 mM EDTA, 2.5% glycerol, 0.25% NP40, 1 mM DTT; Benzonase in the lysis buffer; immunoblot. For orientation: Immunoblotting shows a protein as a band on a membrane.

Experiment [2] concerns the target endogenous RUNX3 (human (endogenous in HGC27)) (UniProt Q13761). Kind of experiment: proximity ligation; Duolink in situ PLA on HGC27 cells, endogenous proteins, pairs of primary antibodies.
Experiment [3] has the same target. The experiment can be described thus: co-IP; endogenous proteins, 1 mg HGC27 whole-cell lysate, anti-RUNX3 antibody (D9K6L) or normal IgG overnight at 4 °C, Dynabeads Protein G; immunoblot.
Experiment [4] addresses FLAG-tagged RUNX3 truncation (aa 1-187) (human) (UniProt Q13761). Kind of experiment: co-IP; HEK293T cells transfected with the indicated plasmids, lysed 24 h later; 400 µg lysate, 90 min with anti-HA affinity gel or Flag M2 affinity gel in 25 mM Tris pH 8.0, 0.15 M NaCl, 0.25 mM EDTA, 2.5% glycerol, 0.25% NP40, 1 mM DTT; Benzonase in the lysis buffer; immunoblot.
Another experiment has as its target FLAG-tagged MYC (UniProt P01106). The experiment is described as above.
For a further experiment, the target named is RUNX1 (human) (UniProt Q01196). Described as above.
The target in another experiment is RUNX2 (human) (UniProt Q13950). The experiment is described as above.
Experiment [5] has as its target RUNX3 R122C mutant (human) (UniProt Q13761). The description is as above.
The target in the next experiment is HA-tagged MYC (UniProt P01106). The description is as above.

As to MAX (from UniProt P61244 1-160), the binding entry in experiment [1] is “no binding”.

“endogenous FBXW7 (from UniProt Q969H0 1-707)”: the binding entry in experiment [2] and in experiment [3] was “binds” each time.

Take “HA-tagged MYC aa 357-439 (from UniProt P01106-1 357-439) (domain or fragment)”: the binding entry in [1] was “binds”.

As for “GSK3β (from UniProt P49841 1-420) (enzyme)”, the binding entry in experiment [4] is “binds”.

Take “Untagged RUNX3 (from UniProt Q13761 1-415)”: in the experiment with FLAG-tagged MYC, the binding result was “binds”.

Regarding “HA-tagged MYC (from UniProt P01106-1 1-439)”, the binding result is given as “binds” in [1]; “binds” in [4]; “binds” with RUNX1 (human); “binds” in the experiment with RUNX2 (human); “no binding” in [5].

For “endogenous MAX (from UniProt P61244 1-160)”, the binding entry in experiment [2] is given as “no binding”.

In the case of CBFβ (from UniProt Q13951 1-182), the binding entry with HA-tagged MYC was “binds”.

Turning to “endogenous GSK3β (from UniProt P49841 1-420) (enzyme)”, the binding result in experiment [2] and in experiment [3] was “binds” each time.

“HA-tagged MYC aa 1-171 (from UniProt P01106-1 1-171) (domain or fragment)”: in experiment [1], the binding result was “binds”.

Take FBXW7 (from UniProt Q969H0 1-707): the binding result in [1] and in [4] was “binds” throughout.
